Binding signal (RPM ratio (pull-down/input)) data for 31 sequences are collected here from publication PMC12820563.

Some of the results follow. The list includes weakly bound sequences.

For the experiment, the target named is T1, MBP-FoxP3dN (UniProt Q99JB6).
T1 sequence: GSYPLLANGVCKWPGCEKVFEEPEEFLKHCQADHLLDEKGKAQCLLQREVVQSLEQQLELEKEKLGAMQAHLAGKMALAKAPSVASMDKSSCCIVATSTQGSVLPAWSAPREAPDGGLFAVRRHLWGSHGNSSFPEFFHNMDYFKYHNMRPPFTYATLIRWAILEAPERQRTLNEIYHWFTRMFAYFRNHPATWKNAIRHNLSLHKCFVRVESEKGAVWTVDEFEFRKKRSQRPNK
Nature of the experiment: PD-seq (MBP pull-down with sequencing). As to conditions: 20 mM Tris-HCl pH 7.5, 100 mM NaCl, 1.5 mM MgCl2, 0.4 uM protein, 0.1 uM dsDNA library, 30 min, room temperature, amylose pull-down; high values mean tight binding; double strand, one strand shown.
As for “GATGATTGTTCTCCCAGCTGATGAATTAGCTGGTTCGAGTAAACAAATTTTCCTAATCTTTCTGTTCAAGCGCCATCTAC”, the binding signal (RPM ratio (pull-down/input)) is 1.21.
The same measure for “GATGATTGTTCTCCCAGCTGATGAATTTCGGTACTCGAGTAAACAAATTTTCCTAATCTTTCTGTTCAAGCGCCATCTAC”: 0.521; for “GATGATTGTTCTCCCAGCTGATGAATTCTTCATTTCGAGTAAACAAATTTTCCTAATCTTTCTGTTCAAGCGCCATCTAC”: 0.277; for “GATGATTGTTCTCCCAGCTGATGAATTAGCCGGGTCGAGTAAACAAATTTTCCTAATCTTTCTGTTCAAGCGCCATCTAC”: 0.179.
The same measure for “GATGATTGTTCTCCCAGCTGATGAATTCGTTGCGTCGAGTAAACAAATTTTCCTAATCTTTCTGTTCAAGCGCCATCTAC”: 2.16; for “GATGATTGTTCTCCCAGCTGATGAATTTCTCATGTCGAGTAAACAAATTTTCCTAATCTTTCTGTTCAAGCGCCATCTAC”: 0.32.
The result for “GATGATTGTTCTCCCAGCTGATGAATTTAAATCATCGAGTAAACAAATTTTCCTAATCTTTCTGTTCAAGCGCCATCTAC” reads 0.449.
For “GATGATTGTTCTCCCAGCTGATGAATTATTCAGGTCGAGTAAACAAATTTTCCTAATCTTTCTGTTCAAGCGCCATCTAC”, the binding signal (RPM ratio (pull-down/input)) came to 0.225.
For the sequence “GATGATTGTTCTCCCAGCTGATGAATTCTTCTAGTCGAGTAAACAAATTTTCCTAATCTTTCTGTTCAAGCGCCATCTAC”, the binding signal (RPM ratio (pull-down/input)) came to 0.198.
The result for “GATGATTGTTCTCCCAGCTGATGAATTTCGACGATCGAGTAAACAAATTTTCCTAATCTTTCTGTTCAAGCGCCATCTAC” reads 0.311; that for “GATGATTGTTCTCCCAGCTGATGAATTACCACTTTCGAGTAAACAAATTTTCCTAATCTTTCTGTTCAAGCGCCATCTAC”, 0.439.
The same measure for “GATGATTGTTCTCCCAGCTGATGAATTAATGACGTCGAGTAAACAAATTTTCCTAATCTTTCTGTTCAAGCGCCATCTAC”: 0.44; for “GATGATTGTTCTCCCAGCTGATGAATTGTTCTATTCGAGTAAACAAATTTTCCTAATCTTTCTGTTCAAGCGCCATCTAC”: 0.463; for “GATGATTGTTCTCCCAGCTGATGAATTGGACAAATCGAGTAAACAAATTTTCCTAATCTTTCTGTTCAAGCGCCATCTAC”: 0.229.
For the sequence “GATGATTGTTCTCCCAGCTGATGAATTTAGGTCGTCGAGTAAACAAATTTTCCTAATCTTTCTGTTCAAGCGCCATCTAC”, the binding signal (RPM ratio (pull-down/input)) worked out at 0.567.
The result for “GATGATTGTTCTCCCAGCTGATGAATTCTGGGCGTCGAGTAAACAAATTTTCCTAATCTTTCTGTTCAAGCGCCATCTAC” reads 0.468; that for “GATGATTGTTCTCCCAGCTGATGAATTGAGGAGGTCGAGTAAACAAATTTTCCTAATCTTTCTGTTCAAGCGCCATCTAC”, 0.219.
The same measure for “GATGATTGTTCTCCCAGCTGATGAATTGAAGTCGTCGAGTAAACAAATTTTCCTAATCTTTCTGTTCAAGCGCCATCTAC”: 0.348; for “GATGATTGTTCTCCCAGCTGATGAATTGAGTGCATCGAGTAAACAAATTTTCCTAATCTTTCTGTTCAAGCGCCATCTAC”: 1.65.
For the sequence “GATGATTGTTCTCCCAGCTGATGAATTAAGCGCGTCGAGTAAACAAATTTTCCTAATCTTTCTGTTCAAGCGCCATCTAC”, the binding signal (RPM ratio (pull-down/input)) turned out to be 1.4.
For “GATGATTGTTCTCCCAGCTGATGAATTATAGTCGTCGAGTAAACAAATTTTCCTAATCTTTCTGTTCAAGCGCCATCTAC”, the binding signal (RPM ratio (pull-down/input)) worked out at 0.563.
The same measure for “GATGATTGTTCTCCCAGCTGATGAATTTTGGGGGTCGAGTAAACAAATTTTCCTAATCTTTCTGTTCAAGCGCCATCTAC”: 0.483; for “GATGATTGTTCTCCCAGCTGATGAATTGTCTAGCTCGAGTAAACAAATTTTCCTAATCTTTCTGTTCAAGCGCCATCTAC”: 0.355.
The result for “GATGATTGTTCTCCCAGCTGATGAATTATTCAGCTCGAGTAAACAAATTTTCCTAATCTTTCTGTTCAAGCGCCATCTAC” reads 0.274; that for “GATGATTGTTCTCCCAGCTGATGAATTCATCTGGTCGAGTAAACAAATTTTCCTAATCTTTCTGTTCAAGCGCCATCTAC”, 0.33; that for “GATGATTGTTCTCCCAGCTGATGAATTGTGATCATCGAGTAAACAAATTTTCCTAATCTTTCTGTTCAAGCGCCATCTAC”, 1.34.
The result for “GATGATTGTTCTCCCAGCTGATGAATTGAAGGCCTCGAGTAAACAAATTTTCCTAATCTTTCTGTTCAAGCGCCATCTAC” reads 0.478; that for “GATGATTGTTCTCCCAGCTGATGAATTTGAACCTTCGAGTAAACAAATTTTCCTAATCTTTCTGTTCAAGCGCCATCTAC”, 0.302.
As to “GATGATTGTTCTCCCAGCTGATGAATTTCCCATATCGAGTAAACAAATTTTCCTAATCTTTCTGTTCAAGCGCCATCTAC”, the binding signal (RPM ratio (pull-down/input)) was 0.29.
The result for “GATGATTGTTCTCCCAGCTGATGAATTGAGTTCGTCGAGTAAACAAATTTTCCTAATCTTTCTGTTCAAGCGCCATCTAC” reads 0.569; that for “GATGATTGTTCTCCCAGCTGATGAATTTCTATCCTCGAGTAAACAAATTTTCCTAATCTTTCTGTTCAAGCGCCATCTAC”, 0.336.
